# According to paper PMC7819943, “Rice protein-binding microarrays: a tool to detect cis-acting elements near promoter regions in rice”:
# Some of the results follow.
# Target: T1, OsWOX13 (Oryza sativa, UniProt Q5QMM3 1-267)
# T1 sequence: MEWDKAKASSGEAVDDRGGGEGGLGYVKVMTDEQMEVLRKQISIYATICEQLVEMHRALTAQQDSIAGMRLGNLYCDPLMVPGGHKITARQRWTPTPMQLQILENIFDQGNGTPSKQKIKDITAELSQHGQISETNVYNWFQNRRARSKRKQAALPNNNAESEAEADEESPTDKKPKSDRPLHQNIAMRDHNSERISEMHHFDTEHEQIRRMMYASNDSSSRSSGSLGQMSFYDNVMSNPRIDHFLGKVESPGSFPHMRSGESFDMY
# Test: protein-binding microarray (RPBM); PBS, 2% BSA, 51.3 ng/ul salmon testes DNA, 50 uM zinc acetate, 200 nM TF, 25 C, 1 h; high values mean tight binding
# Settings: protein: recombinant; tags: N-terminal polyhistidine and DsRed monomer fusion (pET32a); label: CyDye5-dUTP incorporated in the synthesized complementary strand; 3' TTTTT single-stranded linker to array surface; dsDNA, one strand shown
# In short: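 Polyhistidine-tagged DsRed fusions of transcription factors, joined at the N-terminus, were expressed in E. coli BL21-CodonPlus and isolated on Ni–NTA. They were incubated at 200 nM for 1 h at 25 °C on a custom Agilent array, double-stranded and BSA-blocked, in PBS with 2% BSA, salmon testes DNA and 50 µM zinc acetate. The binding signal is per-feature fluorescence intensity (arbitrary units) read on an Axon 4000B scanner after washing.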
row,Sequence,binding signal
1,CCTGACTGCACACGCGTACACGCACGTACGCAAGGACCAGCGGAGTCACCTAGTGCAG,4820 fluorescence intensity (a.u.)
2,CGTGTCGCTAAATGGGCTAATTGGGCTGATCGGCCAATTTCGGAGTCACCTAGTGCAG,11200 fluorescence intensity (a.u.)
3,TGACTAATTACAGGTTAAACCATCTCATCTCTTATATCACCGGAGTCACCTAGTGCAG,37400 fluorescence intensity (a.u.)
4,ACGGAGCAGTCCATTAATACGTGATTAATTAAGAATTAGCCGGAGTCACCTAGTGCAG,10800 fluorescence intensity (a.u.)
5,TTTGTTGATTTGTTTTGGTTGGATTGATCTGTCGCTTATACGGAGTCACCTAGTGCAG,25500 fluorescence intensity (a.u.)
6,ACACTATATTTAAATTTCTTTCCATCCTACCCAATCACCCCGGAGTCACCTAGTGCAG,3520 fluorescence intensity (a.u.)
7,GTACATTAAATTGGGGAATAAGCCGGTAACAGGGCAGTGGCGGAGTCACCTAGTGCAG,8180 fluorescence intensity (a.u.)
8,CTCTACTAATGCTAATTTGTCTTGTCCTGAGTTAGTTGTTCGGAGTCACCTAGTGCAG,6380 fluorescence intensity (a.u.)
9,GACATGATTATTAGTCAGACGACGAATAGTTGTGAGGTGACGGAGTCACCTAGTGCAG,5130 fluorescence intensity (a.u.)
10,AGTGACTGGCTCCTTGTACAGTTGTCCTGCCGTTTCAATCCGGAGTCACCTAGTGCAG,3190 fluorescence intensity (a.u.)
11,AATTGATTTAACTAAGTGCATTTTGGTCAACAAAGATGTGCGGAGTCACCTAGTGCAG,25800 fluorescence intensity (a.u.)
12,CCGCAAATCACCTTAATATCTAAGTATGACTCGTAGACAACGGAGTCACCTAGTGCAG,6040 fluorescence intensity (a.u.)
13,CTAGATTTATTAATATCGATATGAATGTGGAAAATGCTAGCGGAGTCACCTAGTGCAG,25500 fluorescence intensity (a.u.)
14,CAGTGAGGATTAAAAGTTGATTAACAGAGTAATCCCCTTTCGGAGTCACCTAGTGCAG,4580 fluorescence intensity (a.u.)
15,TATTAATTGGTGGCTAGTAGTGTTCATCAGATCCTAGATGCGGAGTCACCTAGTGCAG,36100 fluorescence intensity (a.u.)
16,GCACAGATTAGCACACTGGAAATCAATGAGCACACATACACGGAGTCACCTAGTGCAG,4560 fluorescence intensity (a.u.)
17,ATGAAATATAATTTGTTAATAAAAGGGCGGTTCAGATTGTCGGAGTCACCTAGTGCAG,6400 fluorescence intensity (a.u.)
18,CGGCGACCGTGGAGTAATTGATGGGCCTCAGAGCGTCGGTCGGAGTCACCTAGTGCAG,11800 fluorescence intensity (a.u.)
19,CCGGCCAATCAGAAAATTCCGTGGCAATAATATATATACCCGGAGTCACCTAGTGCAG,12800 fluorescence intensity (a.u.)
20,CTGTAATTAGTTTTCCTTAAGTTATAAGATGTAATTTTGTCGGAGTCACCTAGTGCAG,29300 fluorescence intensity (a.u.)
21,CAGTATCGCTAATTAATGACATCAACACTAATCAGCGTTGCGGAGTCACCTAGTGCAG,20800 fluorescence intensity (a.u.)

row,Sequence,binding signal
1,AAGATTGATGCAAGGAAACAGTGACTCGCCGTAGGGCTTACGGAGTCACCTAGTGCAG,13600 fluorescence intensity (a.u.)
2,AAGTAATTTGAGAGAAAATTCGTTTTAAATATCATTAAAGCGGAGTCACCTAGTGCAG,8590 fluorescence intensity (a.u.)
3,TCGCCAATGATTGATCGCCTCATTCCCTCCTCCTCCTCCTCGGAGTCACCTAGTGCAG,57300 fluorescence intensity (a.u.)
4,GTTCTTTGACAGGTTGACGGGGAGGAACAAGGAGGCGTGGCGGAGTCACCTAGTGCAG,21100 fluorescence intensity (a.u.)
5,TTACAGTCATTGACTGTTTAGCATCATTTGAGCCACTGTGCGGAGTCACCTAGTGCAG,20300 fluorescence intensity (a.u.)
6,GGTTGATTCCTTCAATGGATTGCCATGCATGTATGCCCAGCGGAGTCACCTAGTGCAG,7690 fluorescence intensity (a.u.)
7,TTTAATTCCAAATTTCAGCAATAAATTATATTTCTATATGCGGAGTCACCTAGTGCAG,4790 fluorescence intensity (a.u.)
8,CTAACCAATCATCAAATTGTCACTGAAGTCCAAGCTACAACGGAGTCACCTAGTGCAG,12700 fluorescence intensity (a.u.)
9,TGGATTGATCACCAGATGGAATATCCCGTGTACGCTTTCCCGGAGTCACCTAGTGCAG,21900 fluorescence intensity (a.u.)
10,AATTTAAATTTGAATCGGATATAATTCAAATTCAAATTTGCGGAGTCACCTAGTGCAG,9610 fluorescence intensity (a.u.)
11,TCTGATTAGTATATATATATATATATATTATACATTATGACGGAGTCACCTAGTGCAG,28200 fluorescence intensity (a.u.)
12,TGCAAATTGAGAAACACACTACATCTCATATTGCGGTTGGCGGAGTCACCTAGTGCAG,24600 fluorescence intensity (a.u.)
13,AGGACTCTAATCCCTTGTAATTAGGATCACCGAACCAACACGGAGTCACCTAGTGCAG,3170 fluorescence intensity (a.u.)
14,CTTAATGTATGTTGATTTGTCATCACATGTATGATTAGGGCGGAGTCACCTAGTGCAG,56400 fluorescence intensity (a.u.)
15,CATAAATTGAACTATGGCTTGACTAAAAGAGTTAGCCAGCCGGAGTCACCTAGTGCAG,41800 fluorescence intensity (a.u.)
16,TAATTTTCTGAGTGATCAAATAATTGACCATAATTTTCCACGGAGTCACCTAGTGCAG,8420 fluorescence intensity (a.u.)
17,AAAGATTTTGATTAGGACTTACATCAGATCAAACAAATCTCGGAGTCACCTAGTGCAG,12700 fluorescence intensity (a.u.)
18,ACAGACTGACGACGTTTCATGACTGACTGTTTGACTTATCCGGAGTCACCTAGTGCAG,10500 fluorescence intensity (a.u.)
19,ATCTAAATTTTGACTTCACCCTTATTTAGAACGATAAGTACGGAGTCACCTAGTGCAG,5140 fluorescence intensity (a.u.)
20,GAGGGATGACAAATTGTTCAGTCAAACACGCTTCATGTAGCGGAGTCACCTAGTGCAG,5210 fluorescence intensity (a.u.)
21,CTAGAATGTTGTAAAATTAATTTATTACTTACCTATAATGCGGAGTCACCTAGTGCAG,10000 fluorescence intensity (a.u.)
